{"source": "patent EP4810052A2", "about": "“HCRHR2 SELECTIVE POLYPEPTIDES” (Gubra A/S, priority 2023, dated 2026)", "key": {"hCRHR1": {"biological_target": "T1, hCRHR1 (Homo sapiens, UniProt P34998)", "T1 sequence (P34998 24-415)": "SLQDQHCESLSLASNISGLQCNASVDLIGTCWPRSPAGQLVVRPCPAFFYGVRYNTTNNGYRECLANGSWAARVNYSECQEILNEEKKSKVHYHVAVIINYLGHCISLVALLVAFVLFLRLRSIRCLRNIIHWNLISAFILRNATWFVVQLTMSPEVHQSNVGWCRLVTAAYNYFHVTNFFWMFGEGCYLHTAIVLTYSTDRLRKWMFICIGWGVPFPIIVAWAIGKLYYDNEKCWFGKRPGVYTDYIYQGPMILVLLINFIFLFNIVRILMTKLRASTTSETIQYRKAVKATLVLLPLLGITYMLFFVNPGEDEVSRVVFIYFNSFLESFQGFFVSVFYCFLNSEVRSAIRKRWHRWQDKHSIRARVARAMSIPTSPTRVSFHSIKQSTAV", "assay": "HTRF cAMP assay, determination of hCRHR1 potency (peptide libraries 5 conc., purified peptides 11 conc.)", "format": "cell-based", "details": "library peptides, matched molecular pairs L vs Nle in position X^38", "method_in_brief": "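Cellular cAMP was read by time-resolved FRET between d2-labelled cAMP and cryptate anti-cAMP antibody. The cells were freshly thawed suspension CHO-K1 cells stably expressing human CRHR1.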"}, "hCRHR2": {"biological_target": "T2, hCRHR2 (Homo sapiens, UniProt Q13324)", "T2 sequence (Q13324 1-411)": "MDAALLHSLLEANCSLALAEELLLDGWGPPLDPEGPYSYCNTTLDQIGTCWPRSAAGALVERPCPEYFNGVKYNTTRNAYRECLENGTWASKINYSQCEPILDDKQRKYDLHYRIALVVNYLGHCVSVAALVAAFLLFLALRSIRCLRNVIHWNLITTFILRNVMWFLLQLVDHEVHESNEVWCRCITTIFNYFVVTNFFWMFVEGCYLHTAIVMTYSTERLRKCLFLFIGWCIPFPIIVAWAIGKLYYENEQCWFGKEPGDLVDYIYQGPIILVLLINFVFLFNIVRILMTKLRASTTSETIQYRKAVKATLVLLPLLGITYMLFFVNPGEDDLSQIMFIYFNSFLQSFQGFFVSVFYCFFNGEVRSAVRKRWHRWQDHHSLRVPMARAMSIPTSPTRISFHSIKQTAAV", "assay": "HTRF cAMP assay, determination of hCRHR2 potency (peptide libraries 5 conc., purified peptides 11 conc.)", "format": "cell-based", "details": "library peptides, matched molecular pairs L vs Nle in position X^38", "method_in_brief": "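Read-out was HTRF competitive cAMP detection (d2-labelled cAMP, cryptate-labelled antibody) in suspended, freshly thawed CHO-K1 cells stably carrying human CRHR2.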"}}, "note": "For at least one compound, name, drawing or mass did not settle the structure. Starred links: 1 amine or outer side, 2 acyl side, 3 side chain; linkers in the order of their positions; H or OH if unused. Residues, ends and D or L forms follow the SMILES beside them. Groups on a side chain read outwards from the residue. *: point of attachment. C20 diacid = O=C(O)CCCCCCCCCCCCCCCCCCC(=O)*; γGlu = O=C(O)[C@H](CCC(=O)[*:2])N[*:1]; AEEA = NCCOCCOCC(=O)O"}
{"smiles": "CC[C@H](C)[C@H](N)C(=O)N[C@H](C(=O)N[C@@H](CC(C)C)C(=O)N[C@@H](CO)C(=O)N[C@@H](CC(C)C)C(=O)N[C@@H](CC(=O)O)C(=O)N[C@H](C(=O)N1CCC[C@H]1C(=O)N[C@@H](CC(C)C)C(=O)NCC(=O)N[C@@H](CC(C)C)C(=O)N[C@@H](CC(C)C)C(=O)N[C@@H](CCC(N)=O)C(=O)N[C@H](C(=O)N[C@@H](CC(C)C)C(=O)N[C@@H](CC(C)C)C(=O)N[C@@H](CCC(=O)O)C(=O)N[C@@H](CCC(N)=O)C(=O)N[C@@H](C)C(=O)N[C@@H](CCCNC(=N)N)C(=O)N[C@@H](C)C(=O)N[C@@H](CCCNC(=N)N)C(=O)N[C@@H](C)C(=O)N[C@@H](C)C(=O)N[C@@H](CCCNC(=N)N)C(=O)N[C@@H](CCC(=O)O)C(=O)N[C@@H](CCC(N)=O)C(=O)N[C@@H](C)C(=O)N[C@@H](CCCCNC(=O)COCCOCCNC(=O)COCCOCCNC(=O)CC[C@H](NC(=O)CC[C@H](NC(=O)CCCCCCCCCCCCCCCCCCC(=O)O)C(=O)O)C(=O)O)C(=O)N[C@H](C(=O)N[C@@H](CC(N)=O)C(=O)N[C@@H](C)C(=O)N[C@@H](CCC(=O)O)C(=O)N[C@H](C(=O)N[C@@H](CC(C)C)C(=O)N[C@@H](C)C(=O)N[C@@H](CCC(=O)O)C(=O)N[C@H](C(N)=O)C(C)C)[C@@H](C)CC)[C@@H](C)O)[C@@H](C)CC)C(C)C)C(C)C", "note": "[compound 98] (H-IVLSLDVPLGLLQILLEQARARAAREQAK([AEEA-AEEA-γGlu-γGlu-C20 diacid])TNAEILAEV-NH2; N-terminus assumed)", "values": [{"measurement": "Potency hCRHR1 pEC50", "setting": "hCRHR1", "result": 8.0}, {"measurement": "Potency hCRHR2 pEC50", "setting": "hCRHR2", "result": 9.4}]}
